This is one part of the list.
Test system: HSkMC (human skeletal muscle cells)
Experiment: cytotoxicity call (relative viability < 0.9)
Conditions: 10 µM

| SMILES | cytotoxicity call |
| --- | --- |
| C[C@H]1CN([C@@H](C)CO)C(=O)c2cc(NC(=O)Nc3ccccc3)ccc2O[C@H]1CN(C)Cc1ccc(Cl)c(Cl)c1 | active |
| C[C@@H]1CN([C@H](C)CO)C(=O)c2cc(NC(=O)CCC(F)(F)F)ccc2O[C@@H](C)CCCCO[C@H]1CN(C)Cc1ccc(C(F)(F)F)cc1 | inactive |
| C[C@@H](Cc1c[nH]c2ccccc12)NC(=O)CN | inactive |
| Cc1ccc(S(=O)(=O)Nc2cccc3c2O[C@@H](CN(C)Cc2ccc(C(F)(F)F)cc2)[C@H](C)CN([C@@H](C)CO)C3=O)cc1 | inactive |
| C[C@@H]1CN([C@H](C)CO)C(=O)c2cccc(NC(=O)Nc3ccc(C(F)(F)F)cc3)c2O[C@H]1CN(C)C(=O)Nc1ccc(F)cc1 | inactive |
| COc1c(O)cc(O)cc1O | inactive |
| COc1ccc(S(=O)(=O)Nc2ccc3c(c2)C(=O)N([C@@H](C)CO)C[C@H](C)[C@@H](CN(C)Cc2ccc(Oc4ccccc4)cc2)O3)cc1 | inactive |
| COc1ccc([C@H]([C@@H](O)Cc2ccccc2)N(CC#C[C@@H](O[Si](c2ccccc2)(c2ccccc2)C(C)(C)C)c2ccccc2)[C@@H](Cc2ccccc2)C(OC)OC)cc1 | inactive |
| C[C@@H]1CN([C@@H](C)CO)C(=O)c2cc(NC(=O)C3CCCCC3)ccc2O[C@@H](C)CCCCO[C@H]1CN(C)Cc1ccc2c(c1)OCO2 | inactive |
| CCCC#Cc1ccc2c(c1)O[C@@H](CN(C)S(=O)(=O)c1cccc(F)c1)[C@@H](C)CN([C@@H](C)CO)S2(=O)=O | inactive |
| Cc1nnc(NCc2ccccc2)n(N)c1=O | inactive |
| COc1ccc(CN(C)C[C@H]2Oc3ccc(NC(=O)Nc4ccc(C(F)(F)F)cc4)cc3C(=O)N([C@@H](C)CO)C[C@@H]2C)cc1 | active |
| CC(C)NC(=O)Nc1ccc2c(c1)C(=O)N([C@H](C)CO)C[C@H](C)[C@@H](CN(C)C(=O)Nc1cccc3ccccc13)OCCCC[C@@H](C)O2 | inactive |
| C[C@@H]1CCCCO[C@@H](CN(C)C(=O)c2ccncc2)[C@H](C)CN([C@H](C)CO)C(=O)c2cc(NS(C)(=O)=O)ccc2O1 | inactive |
| C[C@@H]1CN([C@H](C)CO)C(=O)c2cc(NC(=O)CCC(F)(F)F)ccc2O[C@@H](C)CCCCO[C@@H]1CN(C)C(=O)C1CCCCC1 | inactive |
| Cc1ccc(S(=O)(=O)Nc2ccc3c(c2)C(=O)N([C@H](C)CO)C[C@@H](C)[C@@H](CN(C)C(=O)C2CCCCC2)OCCCC[C@H](C)O3)cc1 | inactive |

| SMILES | cytotoxicity call |
| --- | --- |
| Cc1cc(=O)n(C(N)=S)[nH]1 | inactive |
| O=C1O[C@H](c2ccccc2)[C@H](c2ccccc2)N2[C@H]1[C@@H](C(=O)N1CCN(c3ncccn3)CC1)[C@]1(C(=O)Nc3ccc(C#CC4(O)CCCCCC4)cc31)[C@H]2c1ccccc1OCCO | inactive |
| O=C(CCO)c1ccc(O)cc1 | inactive |
| C[C@@H]1CN([C@H](C)CO)C(=O)c2cc(-c3cccc(C(=O)N(C)C)c3)cnc2O[C@@H]1CN(C)S(=O)(=O)c1ccccc1 | inactive |
| COc1ccc(S(=O)(=O)N(C)C[C@H]2Oc3ccc(NC(=O)C4CC4)cc3C(=O)N([C@H](C)CO)C[C@@H]2C)cc1 | inactive |
| C[C@@H](NCc1cnc(N(C)C)s1)C(N)=O | inactive |
| CC(=O)N1CCNCC1 | inactive |
| CN1CCN(C(=O)C[C@@H]2CC[C@H]3[C@@H](COC[C@@H](O)CN3C(=O)C3CC3)O2)CC1 | inactive |
| C[C@@H]1CN([C@H](C)CO)C(=O)c2cc(NC(=O)c3ccccc3)ccc2O[C@@H](C)CCCCO[C@@H]1CN(C)Cc1ccc2c(c1)OCO2 | inactive |
| C[C@H](CO)N1C[C@H](C)[C@H](CN(C)Cc2ccc(C(=O)Nc3ccccc3N)cc2)Oc2ccc(NC(=O)Nc3cccc4ccccc34)cc2CC1=O | inactive |
| Cc1ccc(S(=O)(=O)N2C[C@H](O)COC[C@H]3O[C@H](CC(=O)NCc4ccc(Cl)c(Cl)c4)CC[C@@H]32)cc1 | inactive |
| CCOC(=O)c1sc(=NN)[nH]c1C | inactive |
| CC(C)NC(=O)Nc1cccc2c1O[C@H](CN(C)S(=O)(=O)c1cccs1)[C@H](C)CN([C@@H](C)CO)C2=O | inactive |
| C[C@H]1CN([C@@H](C)CO)C(=O)c2cccc(NS(=O)(=O)c3cn(C)cn3)c2O[C@@H]1CN(C)C(=O)Nc1ccccc1 | inactive |
| C[C@@H]1CN([C@@H](C)CO)C(=O)c2cc(NC(=O)Cc3cn(C)c4ccccc34)ccc2O[C@@H]1CN(C)Cc1ccc(Oc2ccccc2)cc1 | inactive |

Test system: HepG2
Experiment: cytotoxicity call (relative viability < 0.9)
Conditions: 10 µM

| SMILES | cytotoxicity call |
| --- | --- |
| NCC[C@@H]1CC[C@@H](NC(=O)c2ccccc2F)[C@H](CO)O1 | inactive |
| COc1ccccc1[C@@H](NC(=O)C1CCN(CCOc2ccc(Cl)cc2Cl)CC1)c1ccccn1 | inactive |
| Cc1ccc(S(=O)(=O)N(C)C[C@@H]2Oc3c(NC(=O)Nc4cccc5ccccc45)cccc3C(=O)N([C@H](C)CO)C[C@H]2C)cc1 | inactive |
| C[C@H](CO)N1C[C@H](C)[C@@H](CN(C)C(=O)Nc2ccc3c(c2)OCCO3)OCc2cn(nn2)CCCC1=O | inactive |
| CCCCCCCCCC(=O)N[C@@H](Cc1c[nH]c2ccccc12)C(=O)N[C@H](CC(N)=O)C(=O)N[C@@H](CC(=O)O)C(=O)N[C@@H]1C(=O)NCC(=O)N[C@@H](CCCN)C(=O)N[C@@H](CC(=O)O)C(=O)N[C@H](C)C(=O)N[C@@H](CC(=O)O)C(=O)NCC(=O)N[C@H](CO)C(=O)N[C@@H]([C@H](C)CC(=O)O)C(=O)N[C@@H](CC(=O)c2ccccc2N)C(=O)O[C@@H]1C | inactive |
| C[C@@H]1CN([C@@H](C)CO)S(=O)(=O)c2ccc(-c3cccc(C#N)c3)cc2O[C@@H]1CN(C)C(=O)c1ccncc1 | inactive |
| Cc1noc(C)c1S(=O)(=O)N(C)C[C@@H]1Oc2c(NS(=O)(=O)c3cn(C)cn3)cccc2C(=O)N([C@H](C)CO)C[C@H]1C | inactive |
| C[C@@H]1CN([C@@H](C)CO)C(=O)c2cc(NC(=O)CCCCCC(=O)Nc3ccccc3N)ccc2O[C@H]1CN(C)CC1CCCCC1 | inactive |
| O=C(CN1C(=O)c2cccc3cccc(c23)C1=O)N1CCN(CCN2C(=O)[C@@H]3[C@@H](C2=O)[C@@H]2C=C[C@@H]3C2)CC1 | inactive |
| C[C@H]1CN([C@@H](C)CO)C(=O)c2cc(NC(=O)Nc3ccccc3)ccc2O[C@H]1CN(C)Cc1ccc(Cl)c(Cl)c1 | active |
| C[C@@H]1CN([C@H](C)CO)C(=O)c2cc(NC(=O)CCC(F)(F)F)ccc2O[C@@H](C)CCCCO[C@H]1CN(C)Cc1ccc(C(F)(F)F)cc1 | inactive |
| C[C@@H](Cc1c[nH]c2ccccc12)NC(=O)CN | inactive |
| Cc1ccc(S(=O)(=O)Nc2cccc3c2O[C@@H](CN(C)Cc2ccc(C(F)(F)F)cc2)[C@H](C)CN([C@@H](C)CO)C3=O)cc1 | inactive |
| C[C@@H]1CN([C@H](C)CO)C(=O)c2cccc(NC(=O)Nc3ccc(C(F)(F)F)cc3)c2O[C@H]1CN(C)C(=O)Nc1ccc(F)cc1 | inactive |
| COc1c(O)cc(O)cc1O | inactive |
| COc1ccc(S(=O)(=O)Nc2ccc3c(c2)C(=O)N([C@@H](C)CO)C[C@H](C)[C@@H](CN(C)Cc2ccc(Oc4ccccc4)cc2)O3)cc1 | inactive |
| COc1ccc([C@H]([C@@H](O)Cc2ccccc2)N(CC#C[C@@H](O[Si](c2ccccc2)(c2ccccc2)C(C)(C)C)c2ccccc2)[C@@H](Cc2ccccc2)C(OC)OC)cc1 | inactive |

| SMILES | cytotoxicity call |
| --- | --- |
| C[C@@H]1CN([C@@H](C)CO)C(=O)c2cc(NC(=O)C3CCCCC3)ccc2O[C@@H](C)CCCCO[C@H]1CN(C)Cc1ccc2c(c1)OCO2 | inactive |
| CCCC#Cc1ccc2c(c1)O[C@@H](CN(C)S(=O)(=O)c1cccc(F)c1)[C@@H](C)CN([C@@H](C)CO)S2(=O)=O | inactive |
| Cc1nnc(NCc2ccccc2)n(N)c1=O | inactive |
| COc1ccc(CN(C)C[C@H]2Oc3ccc(NC(=O)Nc4ccc(C(F)(F)F)cc4)cc3C(=O)N([C@@H](C)CO)C[C@@H]2C)cc1 | active |
| CC(C)NC(=O)Nc1ccc2c(c1)C(=O)N([C@H](C)CO)C[C@H](C)[C@@H](CN(C)C(=O)Nc1cccc3ccccc13)OCCCC[C@@H](C)O2 | inactive |
| C[C@@H]1CCCCO[C@@H](CN(C)C(=O)c2ccncc2)[C@H](C)CN([C@H](C)CO)C(=O)c2cc(NS(C)(=O)=O)ccc2O1 | inactive |
| C[C@@H]1CN([C@H](C)CO)C(=O)c2cc(NC(=O)CCC(F)(F)F)ccc2O[C@@H](C)CCCCO[C@@H]1CN(C)C(=O)C1CCCCC1 | inactive |
| Cc1ccc(S(=O)(=O)Nc2ccc3c(c2)C(=O)N([C@H](C)CO)C[C@@H](C)[C@@H](CN(C)C(=O)C2CCCCC2)OCCCC[C@H](C)O3)cc1 | inactive |
| Cc1cc(=O)n(C(N)=S)[nH]1 | inactive |
| O=C1O[C@H](c2ccccc2)[C@H](c2ccccc2)N2[C@H]1[C@@H](C(=O)N1CCN(c3ncccn3)CC1)[C@]1(C(=O)Nc3ccc(C#CC4(O)CCCCCC4)cc31)[C@H]2c1ccccc1OCCO | inactive |
| O=C(CCO)c1ccc(O)cc1 | inactive |
| C[C@@H]1CN([C@H](C)CO)C(=O)c2cc(-c3cccc(C(=O)N(C)C)c3)cnc2O[C@@H]1CN(C)S(=O)(=O)c1ccccc1 | inactive |
| COc1ccc(S(=O)(=O)N(C)C[C@H]2Oc3ccc(NC(=O)C4CC4)cc3C(=O)N([C@H](C)CO)C[C@@H]2C)cc1 | inactive |
| C[C@@H](NCc1cnc(N(C)C)s1)C(N)=O | inactive |
| CC(=O)N1CCNCC1 | inactive |
| CN1CCN(C(=O)C[C@@H]2CC[C@H]3[C@@H](COC[C@@H](O)CN3C(=O)C3CC3)O2)CC1 | inactive |
| C[C@@H]1CN([C@H](C)CO)C(=O)c2cc(NC(=O)c3ccccc3)ccc2O[C@@H](C)CCCCO[C@@H]1CN(C)Cc1ccc2c(c1)OCO2 | active |
